Laboratory results reported in the supplement of paper PMC3334620.
Whole data set: some 33,000 sequences, median “E-score (-0.5 to 0.5)” near -0.032, cut for the highest 2% near 0.36. The list shows a part of the results.

Target: T1, Sko1 (UniProt Q02100)
T1 sequence: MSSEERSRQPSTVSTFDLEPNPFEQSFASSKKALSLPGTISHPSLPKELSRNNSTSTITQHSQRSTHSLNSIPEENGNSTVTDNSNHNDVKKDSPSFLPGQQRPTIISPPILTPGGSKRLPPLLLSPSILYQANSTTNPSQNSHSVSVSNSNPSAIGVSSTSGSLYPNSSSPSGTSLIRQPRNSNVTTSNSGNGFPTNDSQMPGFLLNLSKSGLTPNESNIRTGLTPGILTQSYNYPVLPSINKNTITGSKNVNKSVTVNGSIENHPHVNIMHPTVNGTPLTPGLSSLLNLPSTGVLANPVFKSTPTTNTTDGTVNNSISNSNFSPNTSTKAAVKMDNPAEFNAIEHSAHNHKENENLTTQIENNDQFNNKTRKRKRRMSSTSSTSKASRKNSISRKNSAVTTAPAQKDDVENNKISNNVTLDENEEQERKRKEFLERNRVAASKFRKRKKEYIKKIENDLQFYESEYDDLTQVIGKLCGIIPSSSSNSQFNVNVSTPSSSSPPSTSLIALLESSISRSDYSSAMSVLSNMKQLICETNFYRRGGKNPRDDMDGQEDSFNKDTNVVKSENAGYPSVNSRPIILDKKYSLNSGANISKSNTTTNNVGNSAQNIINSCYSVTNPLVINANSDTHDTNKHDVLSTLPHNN
Test: PBM E-score (8-mer binding enrichment) (E-score (-0.5 to 0.5)); higher = stronger / more preferred TF binding; most listed sequences are background and not binding sites
Settings: protein concentration: 200 nM; construct: GST-full length
How it was run: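 Yeast transcription factors carrying a GST tag, as full-length proteins or DNA-binding domains, were produced by PURExpress in vitro transcription/translation. About 100-200 nM protein was applied to universal all-10-mer Agilent arrays, double-stranded by primer extension on fresh or once-stripped slides. Bound protein was detected with fluorescent anti-GST, and scans were normalised with masliner. The Universal PBM Analysis Suite gave each ungapped eight-base word, pooled with its reverse complement, an E-score, a modified Wilcoxon-Mann-Whitney statistic.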

Sequence	PBM E-score
GTGGAGGA	-0.156
CTGACTGC	-0.03
CTCAGTCA	-0.121
AGCTGGTA	-0.226
GGAAATTA	0.187
GACACGCC	0.0381
TACTCAGA	0.11
ATTAGAGC	0.164
ACATCGAT	0.0796
ACTAAGGA	-0.138
CGGATAGC	-0.164
TCGCCCGA	-0.231
GATTTGAA	0.0915
CCGTCAAA	-0.072
ACAGTCTG	-0.171
GAGAGCCC	-0.278
GAGCCAGA	-0.0787
AACTCGCT	-0.0545
TACGATAA	0.274
CAAATTTC	0.126
GACCACTC	-0.208
AGCTCGCA	-0.0497
AGCATCAT	0.263
ACATACCG	-0.0469
CTCGCGAA	-0.0392

Sequence	PBM E-score
AAAGGAAG	-0.122
GCCTGATA	-0.0647
GTACCTCA	0.0355
CTAGGCAC	-0.17
CCGAATTC	-0.0237
GGTAATTA	0.239
GACATGAC	0.272
CGACGGCA	-0.211
AAGCTCTA	0.0756
ATCACGGG	-0.112
GGAAGTAA	-0.0611
CGCTGGAA	-0.184
CATTCCCC	-0.207
CGGTTTTA	0.00908
ACCATGTC	0.104
GCGTGACA	0.147
CTGCTATA	-0.0843
CCTAAGCA	-0.0185
GCGCTGCC	-0.268
GAAATGCA	-0.103
CAATCGAG	-0.197
CAAAAGGG	-0.171
TCTGCTCA	-0.106
CGCCTTAC	0.175
GAAAAGAC	0.132

Sequence	PBM E-score
GACAAATC	0.154
CTAAGACA	0.0545
GAAAAAAA	0.232
CCGGTTTC	-0.0188
AGGCCCTG	-0.281
CGCGCTGA	-0.0118
AGCAGTCC	-0.301
GACATTCA	0.0556
CCGTATGA	0.135
GTACACGA	0.207
TTACTGAA	0.144
ATAGATAC	0.0984
GTCATAAC	0.285
CCGGTTTA	-0.208
AGGCCAGA	-0.358
CATTTAAA	0.178
CCACCGGG	-0.281
GAATCATA	0.204
AAAAGTGC	0.0726
CATCACTA	0.296
CATAGCAC	0.109
CGGTGACA	-0.0125
AACATGTG	0.134
CCCCGACG	-0.0246
CTAAACAG	-0.091

Sequence	PBM E-score
AACCCGCG	-0.0555
CTAAAGAG	-0.0278
CTAGACGC	-0.00436
CGTTACCA	0.186
ATTACTTA	0.201
CTTATTTC	0.228
CCGTACCA	-0.118
GGCAGGAC	-0.323
GAACGACA	0.126
GCCTCCCA	-0.282
CATAATGC	0.144
CACTGTAC	-0.176
ACGTTGCT	0.334
AGTTTTTG	0.0768
GATTTACA	0.0615
GCACCGAC	-0.0783
CACTACGA	0.265
GAAGCTGA	0.0452
AGATAACG	0.292
GGATTAGA	-0.115
TCGATTCA	0.0916
CCTCATCA	0.129
ATCTCTCG	-0.0248
GTTACAGA	-0.0825
ATACGAAT	0.286

Sequence	PBM E-score
CCCACGCC	-0.127
ACCGTTAC	0.0271
GGGAATTA	0.0914
GACGCCTC	0.135
CACTCTAA	-0.00829
CATTATAG	0.0516
GCAGTTAC	0.17
GTAAAGAA	0.222
CGAATGAC	0.351
CGTAGCTC	0.247
AAGAAGGC	-0.144
CATTTAAG	0.0986
CACCCATG	-0.0784
CACTACTA	-0.0403
AAAGGCAA	0.102
ATTCGCAA	0.117
GGGGTCTA	-0.219
GTATCCCA	-0.14
GCATAGCA	0.122
AAGTTTAT	0.0793
AGGTGCAC	0.0724
GACCTTGC	-0.376
ACAGAAAA	0.162
CCGCAAGA	-0.217
AGATCATA	0.231

Sequence	PBM E-score
AAACTCCT	-0.276
AATATAGA	0.274
AGTGCGTG	0.152
GCATCGCC	-0.164
GACCGAAC	-0.0636
ATGAGACA	0.0161
GGCAAAGA	0.0272
GAGTGGCC	-0.248
AATGGTTC	0.0708
ACACGTCG	0.335
AACCGAGT	-0.234
CAAAGCTG	-0.15
AAGGTTAT	-0.141
CCTGCGTA	0.315
AACTGTTA	0.119
CAATAAGC	-0.134
AGTAGTAC	0.173
GGCATACC	-0.189
ATATGAGC	-0.029
TAACCCAA	0.0819
CGTCGAGC	0.0683
TCATGGCA	-0.0752
CCCAATTC	0.0482
AGTAAGGA	-0.143
GGCAGGGA	-0.262

Sequence	PBM E-score
ACGCGACC	0.177
CAATCGCG	-0.0866
GTGACTTA	0.211
ACGCCTGA	0.15
CATTTGGC	-0.00907
TATGCGCA	0.114
AAGGTAAG	-0.00253
ATGACTTC	0.0498
GACGGCAA	0.013
CGCAAGCC	0.0906
ACTTTCCT	0.0188
ATTTCTTG	0.164
AAGTCCAT	-0.166
GACGCAAC	0.321
ATCCATCC	-0.00565
ACAAGGTC	-0.171
CATCATGC	0.304
AAGCGGAA	-0.0292
GTAAGCCA	-0.0679
GCACTTCA	0.0577
CATCACCG	0.0964
CGGATCTC	-0.185
